Source: PubChem BioAssay AID1963576 (National Center for Advancing Translational Sciences (NCATS), 2024)
Out of some 46,000 compounds screened, about 60 (0.1%) were called active. Inconclusive results (about 3%) are left out. Calls come from the whole dose curve; as a rule, active = well fitted inhibition curve with a large enough effect; inconclusive = small, poorly fitted or top-dose-only effect; inactive = no such curve, though single readings can be large or run the other way. Some of the results follow.

Assay: Primary qHTS assay for Inhibitors of ovarian cancer metastasis using an organotypic tumor microenvironment (TME) model.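 For activity change, negative = inhibition: plate controls were DMSO wells for no effect and tomatine positive control wells for full effect.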 Note: nearly all actives have a fitted effect of over 65% in size.
Details: SKOV3ip1-GFP adhesion/invasion on 3D omental model, fluorescence; series mostly up to 45.8 µM; activity change, negative = inhibition: at the top concentration
Procedure, shortened: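 Primary human omental fibroblast/mesothelial 3D culture pre-formed 48 h. SKOV3ip1-GFP cells added with compounds (0.36-46 umol/L), incubated 2 h RT/16 h 37 C, fixed; GFP cells quantified at 488/509 nm.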

Activity change, negative = inhibition, inactive:
COc1ccccc1N1CCN(S(=O)(=O)c2c(C)sc3ncn(CC(=O)Nc4ccc(C(F)(F)F)cc4)c(=O)c23)CC1 8.09%
COC(=O)c1sc(NC(=O)c2cc3nc(-c4ccc(Br)cc4)cc(C(F)(F)F)n3n2)c(C(=O)OC)c1C 8.56%
CCOC(=O)c1c(NC(=O)Cc2coc3cc(C)ccc23)sc2c1CCCC2 6.23%
O=C(O)Cc1sc(Nc2ccccc2Cl)nc1-c1ccccc1 9.89%
O=C(Cn1ccc2cc(S(=O)(=O)N3CCCCC3)ccc21)NCCc1ccc(Cl)cc1 7.43%
Cc1ccc(OCC(=O)Nc2ccccc2C(=O)OCc2cc(=O)n3ccsc3n2)cc1C -2.69%
COc1ccc(CCNC(=O)CN(c2cc(C(F)(F)F)ccc2Cl)S(C)(=O)=O)cc1 9.54%
Cc1cccc(C)c1N1CC(c2nc3ccccc3n2CC(=O)OC(C)C)CC1=O (stereo unspecified) 4.46%
COc1ccccc1Nc1nn2c(=O)c3ccc(C(=O)N4CCCCC4)cc3nc2s1 -28.7%
COc1ccc(CCC(=O)Nc2nc3ccc(Cl)cc3s2)cc1OC 17.6%
CCOC(=O)c1cc(S(=O)(=O)N2CCN(c3cc(C)ccc3C)CC2)[nH]n1 13.2%
COc1ccc(CC(=O)NCc2nc3cccnc3n2Cc2ccc(C)cc2)cc1 12.8%
CCCN(CCC)C(=O)CSc1nc2ccccc2c(=O)n1Cc1ccco1 -7.66%
COc1cc(-c2ccno2)ccc1S(=O)(=O)N1CCN(c2ccccc2F)CC1 0.796%
COC(=O)c1ccc(NC(=O)C(=O)NCCc2sc(-c3cccc(F)c3)nc2C)cc1 5.92%
COc1ccc(-c2cc3nccn3c(Nc3ncccc3C(N)=O)n2)cc1OC 41.9%
Cc1ccc(-c2c(C)n3c4c(=O)n(C)c(=O)n(C)c4nc3n2-c2cccc(O)c2)cc1 -4.95%
CC1CCN(S(=O)(=O)c2cc3c4c(c2)CC(=O)N4CCC3)CC1 -3.4%
Cc1cc(C)cc(NC(=O)CSc2oc(-c3cccs3)nc2S(=O)(=O)c2ccccc2)c1 -1.82%
COc1ccc(S(=O)(=O)NCC(c2ccco2)N2CCOCC2)cc1 (stereo unspecified) 9.6%
COc1cccc(OCc2nc3ccccc3n2CCOc2ccccc2C)c1 -22.1%
CCCCOc1ccc(CNC(=O)c2cnc3sc(N4CCOCC4)nn3c2=O)cc1 3.39%
O=C(C1CC1)N1CCN(c2nc3ccc(F)cc3s2)CC1 -0.256%
Cc1ccc(C(=O)NCC(c2cccnc2)N2CCc3ccccc32)cc1C (stereo unspecified) -0.645%
O=[N+]([O-])c1cn2c(n1)OC[C@@H](OCc1ccc(OC(F)(F)F)cc1)C2 1.8%
Cc1ccc(C)c(Nc2nn3c(=O)c4ccc(C(=O)NC5CCCCC5)cc4nc3s2)c1 -2.15%
Cn1nnc2c(C(N)=O)ncn2c1=O 2.91%
O=C(CCn1ccc2cc(S(=O)(=O)N3CCCC3)ccc21)NCc1cccc(Br)c1 -6.18%
CCOC(=O)C(C)Oc1cccc2c(=O)n(CC(=O)Nc3ccc4c(c3)OCCO4)ccc12 (stereo unspecified) -13.6%
Cc1c(C)n(Cc2ccccc2)c2ccc(C(=O)NCc3ccco3)cc12 -5.05%
CCC1CN(C(=O)Nc2cc(C)cc(C)c2)c2ccccc2O1 (stereo unspecified) -6.86%
Cc1cc(NC(=O)c2cc(-c3ccc(Cl)cc3)on2)nn1Cc1ccc(Cl)cc1 -9.01%
Cc1cccc(Cc2c(C)nc3nc(SCc4ccccc4C)nn3c2C)c1 2.38%
CC(=O)c1ccc(NC(=O)CCc2c(C)nc3cc(-c4ccc(Cl)cc4)nn3c2C)cc1 -13.5%
COc1cccc(-n2c(SCc3ccccc3C)nc3c([nH]c4ccccc43)c2=O)c1 -8%
Cc1ccc(CNC(=O)CN2C(=O)C3CCCCN3c3ccc(C(=O)N4CCCC4)cc32)cc1 (stereo unspecified) 2.5%
O=C(NCc1ccccc1Cl)c1ccc2c(O)c(S(=O)(=O)c3ccccc3)c(=O)[nH]c2c1 1.01%
COc1cccc(NC(=O)C2CCN(C(=O)N3CC(C)Oc4ccccc43)CC2)c1 (stereo unspecified) 2.97%
Cc1cc(C)cc(OCC(=O)NCC2(N(C)C)CCCCC2)c1 12.5%
CCOc1ccc(NC(=O)Cn2nnc(C(=O)Nc3ccc(OCC)cc3)c2N)cc1 -15.9%
O=C(COc1ccccc1-c1nc(-c2ccccc2)no1)Nc1ccccc1[N+](=O)[O-] -1.24%
Cc1ccc(S(=O)(=O)N2CCC(c3ccncc3)CC2)c(C)c1 -20.8%
CCCc1cc(=O)n2[nH]c(NCc3ccccc3OC)nc2n1 -5.37%
CCOC(=O)c1ccc(NC(=O)C(Cc2ccccc2)NS(=O)(=O)c2ccc(Br)s2)cc1 (stereo unspecified) -10.5%
Cc1cc(C)cc(Nc2sc(C(=O)c3ccccc3)c(N)c2S(=O)(=O)c2ccccc2)c1 16.1%
CCOC(=O)c1c(C)oc2nc(C)nc(NCc3ccccc3OCC)c12 -3.57%
COc1cc(OC)c(NS(=O)(=O)c2ccc3c(c2)NC(=O)CCS3)cc1Cl 6.26%

outcome, inactive:
CCc1ccc(NC(=O)c2cc3nc(-c4ccc(C)cc4)cc(C(F)(F)F)n3n2)cc1
COc1ccc(NC(=O)CSc2nc3cc(OC)c(OC)cc3c3nc(-c4ccccc4)nn23)cc1Cl
Fc1ccc(-c2cc(-c3ccccc3)c3c(n2)-c2cc(F)ccc2OC3)cc1
CN(C)S(=O)(=O)c1ccc2c(c1)nnn2CCNC(=O)Nc1ccc(Br)cc1
Cn1c(=O)c2c(nc(NCc3ccccc3)n2Cc2ccccc2Cl)n(C)c1=O
Cc1ccc(-c2nc3ncccc3o2)cc1NC(=O)c1cccc(OCC(C)C)c1
Cc1cccc(CN2CCc3nc(N4CCN(c5ccccn5)CC4)ncc3C2)c1
CCc1ccc(NC(=O)Cn2c(=O)n(CCC(=O)NCc3ccc4c(c3)OCO4)c(=O)c3ccccc32)cc1
COc1ccc(Cl)cc1C(=O)Nc1ccc(-c2nnc3n2CCCCC3)cc1
COc1cccc(Cn2c(=O)n(-c3ccccc3C)c(=O)c3c2c2cc(C)ccc2n3C)c1
Cc1ccc(C)c(N2CCN(c3cc(C)nc4c(-c5ccc(Cl)cc5)c(C)nn34)CC2)c1
CCOC(=O)C1=C(CS(=O)(=O)c2ccc(F)cc2)NC(=O)NC1c1ccc(OCC)c(OC)c1 (stereo unspecified)
CCc1nn(CC(=O)NC(C)c2ccccc2)c(=O)c2cc3sccc3n12 (stereo unspecified)
CC(C)CCNC(=O)[C@@H](c1ccccc1)N1Cc2ccccc2C1=O
